Over roughly 33,000 sequences, “E-score (-0.5 to 0.5)” has its median near -0.043; the highest 2% begin near 0.37. The list shows a part of the results.
Biological target: T1, Upc2 (UniProt Q12151)
T1 sequence: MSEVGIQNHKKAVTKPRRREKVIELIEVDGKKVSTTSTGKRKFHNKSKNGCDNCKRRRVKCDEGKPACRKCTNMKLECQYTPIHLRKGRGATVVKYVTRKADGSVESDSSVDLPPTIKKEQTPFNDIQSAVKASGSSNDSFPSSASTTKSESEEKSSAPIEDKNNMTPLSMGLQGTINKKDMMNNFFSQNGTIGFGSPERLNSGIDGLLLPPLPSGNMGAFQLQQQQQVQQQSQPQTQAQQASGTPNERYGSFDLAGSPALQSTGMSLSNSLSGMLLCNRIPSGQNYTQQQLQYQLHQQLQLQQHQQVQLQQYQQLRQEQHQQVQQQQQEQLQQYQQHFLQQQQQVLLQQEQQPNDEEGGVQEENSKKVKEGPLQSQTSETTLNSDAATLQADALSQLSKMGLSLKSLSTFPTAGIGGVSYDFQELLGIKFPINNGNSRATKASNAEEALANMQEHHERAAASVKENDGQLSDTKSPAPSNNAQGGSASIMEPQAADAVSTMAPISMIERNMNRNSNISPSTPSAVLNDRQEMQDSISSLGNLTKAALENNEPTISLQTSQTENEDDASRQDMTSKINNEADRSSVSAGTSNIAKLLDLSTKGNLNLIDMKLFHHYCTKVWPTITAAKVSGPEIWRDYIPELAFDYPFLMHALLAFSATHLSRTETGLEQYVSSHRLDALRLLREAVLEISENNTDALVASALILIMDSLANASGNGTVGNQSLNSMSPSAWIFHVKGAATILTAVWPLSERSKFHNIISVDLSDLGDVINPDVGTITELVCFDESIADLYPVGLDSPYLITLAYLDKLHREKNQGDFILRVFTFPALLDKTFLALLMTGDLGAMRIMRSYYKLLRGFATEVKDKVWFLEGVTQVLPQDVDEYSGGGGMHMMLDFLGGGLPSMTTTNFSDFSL
Test: PBM E-score (8-mer binding enrichment) (E-score (-0.5 to 0.5)); higher = stronger / more preferred TF binding; most listed sequences are background and not binding sites
Conditions: protein concentration: 200 nM; construct: GST-full length
How it was run: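 Each ungapped eight-base word and its reverse complement, pooled, received an E-score from the Universal PBM Analysis Suite. Underlying scans, normalised with masliner, recorded fluorescent anti-GST bound to GST-tagged yeast transcription factors. These were applied at about 100-200 nM to universal all-10-mer Agilent arrays double-stranded by primer extension.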

Sequence | PBM E-score
GTGTAAAA | 0.0224
CTCCTATC | 0.0617
ATGCGGGA | -0.00313
ATTTTAAA | 0.094
ACTCTTTA | -0.0488
AATGCGTA | 0.213
GTGCGTGA | 0.0172
CTCGCGCC | -0.0598
AGCGACTA | 0.154
CAAGGCTA | -0.0665
ACATCCTA | -0.0708
CTTGCATC | -0.0814
ATGCCGCC | -0.0495
AAAAGACC | -0.189
CATGCAAC | -0.0312
CCAGCGAC | -0.2
CTAATAAC | 0.152
AGTATAGG | 0.125
ACGGAAAT | 0.178
GAACGCAA | 0.0539
CTTGCGAA | 0.175
ACTGCGTC | -0.0922

Sequence | PBM E-score
ATCGTCGG | 0.0867
ACTCGTTC | 0.46
TAGCACCA | -0.234
GCGAGTCA | 0.0768
CGCAACTC | -0.0467
AGGTTAGG | -0.175
AACAAAAA | 0.0558
ACCCAGGT | -0.336
AAAAGGTG | 0.028
ATACTAGG | -0.106
AAGGGCCC | -0.0289
ATCACGCG | 0.0976
AGCGTACA | 0.301
ATCATGGG | -0.284
CCCCCGAG | -0.32
AGGCCCGG | -0.38
AGAAGTTA | -0.122
CACAAGCA | -0.115
GGGCAACA | -0.101
GATGATAA | -0.0285
ATTCAAGG | -0.175
AACTGAGA | -0.219

Sequence | PBM E-score
CCCAATCG | -0.114
ACCAGCGT | -0.0198
ACCAATCC | -0.23
AAACTGGT | 0.0535
CCTTGAAC | 0.0625
GACACTGA | -0.132
GAGTGTAC | 0.256
GTAGCACA | -0.0827
CTCAAATA | 0.00825
GGTAAGAC | 0.027
ACAAGGCC | -0.102
AGCTGGAT | 0.00812
CTTATACA | 0.153
CTGATTTA | -0.0524
AACCGGAT | -0.0672
ATGTTCCG | -0.113
GATCATCC | -0.00145
ACAATTAG | -0.114
CCCGCACC | 0.00424
AGAGACAT | -0.123
AGTGACGA | 0.0296
AGAGTTTA | 0.124

Sequence | PBM E-score
CACGTCCG | -0.226
GGGGTTAA | -0.198
CGGACGGA | -0.112
AAAAGCGT | -0.0219
AAGCTATC | -0.0101
ATGTACGA | 0.472
CAGGAACG | 0.396
GTAATTCA | 0.0185
GCCATGAC | -0.0401
CGACAGGC | -0.03
ACGGGTAG | -0.0318
ACCTCCAG | -0.152
GTAACCGA | 0.322
ATGAAGTG | -0.0493
CTGAGAGA | -0.257
ATCAGTGC | -0.0682
GGTGCGTA | 0.187
AAAATTTG | 0.0466
GGAGCACA | -0.0794
AGCGCTCC | -0.0733
ATGGTGTA | 0.104
CCACAGCA | 0.0289

Sequence | PBM E-score
CATCTTGC | -0.0552
ACCGCAAT | 0.204
AACACGCG | 0.126
AGCGTAAA | 0.271
CAAAAATC | -0.0894
ATGCTAAA | -0.112
ATTTGCCA | -0.251
AGATAACT | -0.0531
GCGGATCA | -0.243
TCTCACCA | -0.14
CATATGCC | 0.0153
GAAGGTCC | 0.0645
GGTCAATA | -0.0257
ATGGTTCG | 0.187
CGATGGGA | 0.125
CCAGGGAA | -0.162
GTGTCACA | -0.117
TGGGTTAA | -0.125
ACGTTACC | 0.0243
ACACCTGG | -0.225
CGTTGATA | -0.00786
GGGCCAAA | 0.0302

— the supplement of paper PMC3334620
